Test results: PubChem BioAssay AID360 (National Center for Advancing Translational Sciences (NCATS), 2006)
Hit rate of the full screen: of about 48,000 compounds, about 550 (1.1%) were called active. Inconclusive results (about 4%) are left out. Cut-off read from the data, not from the text of the source: active = potency below about 15 µM; inconclusive = mostly about 16 µM to 33 µM; inactive = weaker than that. Some of the results follow.

Molecular target: Lysosomal acid glucosylceramidase (Homo sapiens) (UniProt P04062)
Assay: Glucocerebrosidase;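 note: the screen sought inhibitors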
Details: purified enzyme, resorufin glucoside fluorescence (screen aimed at inhibitors), 20 min; series mostly up to 77 µM
How it was run: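 Wild-type enzyme at 0.2 nM final in 50mM citric acid/KH2PO4, 10mM sodium taurocholate, 0.01% tween-20, pH 5.9, with resorufin beta-D-glucopyranoside at 30 uM final. Compounds titrated, 20 min at RT, red fluorescence read; AC50 from titration.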
Potency is the fitted concentration of half-maximal effect.

UniProt P04062, sequence (P04062 whole entry, looked up): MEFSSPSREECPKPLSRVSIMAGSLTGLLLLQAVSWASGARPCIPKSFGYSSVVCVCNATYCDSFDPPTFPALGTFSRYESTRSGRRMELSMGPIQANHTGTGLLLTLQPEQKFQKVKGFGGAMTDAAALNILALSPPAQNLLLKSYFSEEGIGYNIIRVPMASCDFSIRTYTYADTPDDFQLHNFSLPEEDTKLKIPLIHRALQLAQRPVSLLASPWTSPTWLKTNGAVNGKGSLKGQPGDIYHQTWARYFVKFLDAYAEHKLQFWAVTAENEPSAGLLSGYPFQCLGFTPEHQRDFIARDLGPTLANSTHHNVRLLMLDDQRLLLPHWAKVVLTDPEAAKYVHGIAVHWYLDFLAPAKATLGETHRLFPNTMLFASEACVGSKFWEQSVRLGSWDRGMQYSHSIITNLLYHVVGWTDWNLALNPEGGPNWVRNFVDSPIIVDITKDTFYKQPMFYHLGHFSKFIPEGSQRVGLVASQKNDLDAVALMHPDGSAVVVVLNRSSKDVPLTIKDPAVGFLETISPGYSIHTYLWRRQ

Potency, active:
CCn1c(-c2c[nH]c3ccccc23)n[nH]c1=S 10.8 µM
O=C(CN1CCCC1)Nc1ccc(NC(=O)Nc2ccccc2Cl)cc1 12.7 µM

Potency, inactive:
O=C(O)CN1C(=O)CSc2ccccc21 > 76.9 µM
CC(=O)C1C(c2ccc(F)cc2)NC(=O)NC1(O)C(F)(F)F (configuration not stated) > 76.9 µM
CCOc1ccc(-c2nnc3ccc(SC)nn23)cc1 > 76.9 µM
COc1ccc(C)cc1NC(=O)Cn1cnc2sc(C)c(S(=O)(=O)N3CCOCC3)c2c1=O > 76.9 µM
Cn1c(NCc2ccco2)nc2ccccc21 > 76.9 µM
Cc1ccc(S(=O)(=O)N2CCN(c3nc(C)nc4sc(C)c(C)c34)CC2)cc1 > 76.9 µM
N#C/C(=C(/O)COC(=O)CCc1ccc(S(=O)(=O)N2CCOCC2)cc1)c1nc2ccccc2[nH]1
Cc1ccc2cc(CN(CC3CCCO3)C(=O)C(C)C)c(=O)[nH]c2c1 (configuration not stated) > 76.9 µM
CCCCCCn1c(-c2ccco2)nc2oc3cc(OC)ccc3c(=O)c2c1=O > 76.9 µM
Cn1nc(OCC(N)=O)ccc1=O > 76.9 µM
CCCCc1c(O)nc2n(c1=O)CCS2 > 76.9 µM
Cc1onc(-c2ccccc2Cl)c1C(=O)N1CCN(c2ccccc2)CC1 > 76.9 µM
Cc1nc(-c2cccc(-c3noc(C)n3)c2)no1 > 76.9 µM
O=C(NCC1CC1)C1CCCN(S(=O)(=O)c2ccc(-n3cnnn3)cc2)C1 (configuration not stated) > 76.9 µM
O=C(COC(=O)c1ccccn1)Nc1cc(Cl)ccc1Cl > 76.9 µM
COc1ccc(Nc2nc(C)cc(C)c2C(N)=O)c(OC)c1 > 76.9 µM
Cc1ccc(-c2noc(CCC(=O)NCCc3ccccc3Cl)n2)cc1 > 76.9 µM
COc1ccc(CCn2c(C)cc3c(c2=O)C(c2ccncc2)C(C#N)=C(N)O3)cc1OC (configuration not stated) > 76.9 µM
O=C(NC1(C(F)(F)F)NC(=O)N(Cc2ccco2)C1=O)c1cccnc1 (configuration not stated) > 76.9 µM
O=S(=O)(c1ccc2c(c1)OCCO2)N1CCC(O)(c2ccc(Cl)cc2)CC1 > 76.9 µM
CCOC(=O)N1CCC(NC(=O)c2cnn3cccnc23)CC1 > 76.9 µM
COc1ccc(C2C(C(=O)c3ccc(C)o3)=C(O)C(=O)N2c2cc(C)on2)cc1OC (configuration not stated) > 76.9 µM
CCn1c(SCc2nnc(-c3ccccc3)o2)nnc1-c1ccc(S(=O)(=O)N2CCCC2)cc1 > 76.9 µM
Cc1nn(C)c(C)c1Sc1ccc(Br)cc1 > 76.9 µM
NC(=O)CCn1nc(-c2ccccc2)c2ccccc2c1=O > 76.9 µM
Cc1ccc(-c2nnc3ccc(SCC(=O)Nc4cc(C)on4)nn23)cc1 > 76.9 µM
O=C(CC1OC(=O)c2ccccc21)c1ccco1 (configuration not stated) > 76.9 µM
O=C(O)CCc1ccc(-c2ccccc2)n1Cc1ccco1 > 76.9 µM
Cc1c(NC(=O)CN2C(=O)C3C4C=CC(C4)C3C2=O)c(=O)n(-c2ccccc2)n1C (configuration not stated) > 76.9 µM
COc1cccc(NC(=O)N2CCC(N3CCCCC3)CC2)c1 > 76.9 µM
COc1cc(NC(=O)c2ccccc2Cl)c(OC)cc1NC(=O)CN1CCOCC1 > 76.9 µM
COCc1c(C(=O)OCc2nc(N)nc(Nc3ccccc3C)n2)oc2ccccc12 > 76.9 µM
COC(=O)c1[nH]c2ccc(Cl)cc2c1NC(=O)CN1CCC(C(N)=O)CC1 > 76.9 µM
O=C(CN1C(=O)CCS(=O)(=O)c2ccccc21)NCc1ccc2c(c1)OCO2 > 76.9 µM
COc1ccc(-n2nnnc2SCC#CCO)cc1 > 76.9 µM
O=C(CC12CC3CC(CC(C3)C1)C2)NCC(=O)N1CCCC1 > 76.9 µM
Cc1ccc(C)c(NC(=O)CN(C)S(=O)(=O)c2ccc(F)cc2)c1 > 76.9 µM
O=C(CN1C(=O)C2C3C=CC(C3)C2C1=O)N1CCc2ccccc2C1 (configuration not stated) > 76.9 µM
CC1(C)Cc2c(c(-c3ccco3)nc3n[nH]c(N)c23)CO1 > 76.9 µM
Cc1ccccc1-n1c(SC/C(O)=C(\C#N)c2nc3ccccc3[nH]2)nnc1-c1ccncc1 > 76.9 µM
CCN(Cc1cc2cc(OC)ccc2[nH]c1=O)C(=O)c1ccncc1 > 76.9 µM
Cc1ccc(CN2C(=O)CCC2C(=O)NCCN2CCOCC2)cc1 (configuration not stated) > 76.9 µM
COC(=O)c1ccccc1NC(=O)Cn1nc(C(F)(F)F)c2c1CCC2 > 76.9 µM
CN(C)/C=N/c1sc2c(c1C#N)CCC2 > 76.9 µM
CC1CC(C)CN(C(=O)Cn2c(=O)n(CCCCC(=O)NCc3ccco3)c(=O)c3ccccc32)C1 (configuration not stated) > 76.9 µM
CCOC(=O)c1c(N)sn(-c2ccccc2C)c1=S > 76.9 µM
CC(C)=C1C2C=CC1C(C(=O)Nc1cc(C)ccc1C)C2C(=O)O (configuration not stated) > 76.9 µM
COc1cc(C2Nc3cc(Cl)c(S(N)(=O)=O)cc3S(=O)(=O)N2)cc(OC)c1OC (configuration not stated) > 76.9 µM
CC(C)(C)NC(=O)NC(=O)COC(=O)CNC(=O)c1cccc(F)c1 > 76.9 µM
O=C(CSc1nnc(-c2ccc(F)cc2)o1)N1CCN(C(=O)c2ccco2)CC1 > 76.9 µM
O=C(O)CCC(NS(=O)(=O)c1ccc(N2CCCC2=O)cc1)C(=O)O (configuration not stated) > 76.9 µM
Cc1ccc(NC(=O)CC(O)(C(F)(F)F)C(F)(F)F)c(Br)c1 > 76.9 µM
Cc1ccc(CNC(=O)c2cc3c(=O)n4cccc(C)c4nc3n(CC3CCCO3)c2=N)cc1 (configuration not stated) > 76.9 µM
O=C(Cc1cn2ccsc2n1)NCc1ccccc1 > 76.9 µM
COc1ccc(CN(CC(=O)NC2CCCC2)C(=O)c2onc(C(N)=O)c2N)cc1 > 76.9 µM
CCOC(=O)c1oc2cc(OCC(N)=O)ccc2c(=O)c1-c1ccc(OC)c(OC)c1 > 76.9 µM
CC(C)(C)NC(=O)C(c1ccco1)N(C(=O)Cn1nnc(-c2ccc(F)cc2)n1)c1cccc(F)c1 (configuration not stated) > 76.9 µM
COC(=O)Nc1nnc(Cc2ccccc2)s1 > 76.9 µM
CCC(C(=O)NC1CCCC1)N(C(=O)Cn1nnc(-c2ccc(C)o2)n1)c1cnc2ccccc2c1 (configuration not stated) > 76.9 µM
CCCOc1cc(C)c(S(=O)(=O)n2ccc(C)n2)cc1C > 76.9 µM
CSc1nnc(-c2ccncc2)n1CCCN1CCCC1=O > 76.9 µM
COc1ccccc1Cn1c(=O)c2ccccc2n2c(Sc3ncnc4sccc34)nnc12 > 76.9 µM
CC(C)CCn1c(SCC(=O)OCn2nnc3ccccc3c2=O)nc2ccccc2c1=O > 76.9 µM
COc1cccc(C(C(=O)NC(C)(C)C)N(C(=O)CCC(=O)Nc2cc(C)on2)C(C)C)c1OC (configuration not stated) > 76.9 µM
O=C1CSC(=O)N1CCOCCN1C(=O)CSC1=O > 76.9 µM
O=C(COc1ccc(S(=O)(=O)N2CCCC2)cc1Cl)N1CCN(c2ccccc2)CC1 > 76.9 µM
CC(C)OCCCNC(=O)C1CCN(S(=O)(=O)N2CCCCC2)CC1 > 76.9 µM
COc1ccc(C2c3c(-c4cc(Cl)c(C)cc4O)n[nH]c3C(=O)N2Cc2cccnc2)cc1OC (configuration not stated) > 76.9 µM
CCN(CC)c1nc2nonc2nc1N(CC)CC > 76.9 µM
O=c1[nH]c(C(F)(F)F)nc2c1nnn2Cc1ccccc1F > 76.9 µM
CCN(CC)CCCNc1cc2n(c(=O)n1)CCc1cc(OC)c(OC)cc1-2 > 76.9 µM
O=C(NC1CCCCC1)c1sc(=S)n2c1[nH]c(=O)c1ccccc12 > 76.9 µM
COc1cc(C(=O)Nc2ccc(-n3cnnn3)c(C)c2)cc(OC)c1OC > 76.9 µM
CCn1c(COc2cccc(OC)c2)nnc1SCC(=O)Nc1cccc(OC)c1 > 76.9 µM
COc1ccccc1-c1noc(CCC(=O)Nc2cccc(C)c2)n1 > 76.9 µM
CC1(C)Cc2noc(N)c2C(C)(C)N1OC(=O)c1ccccc1 > 76.9 µM
CC(=O)Nc1ccc(C2NC(=O)c3ccccc3O2)cc1 (configuration not stated) > 76.9 µM
O=C(Nc1ccccc1C(F)(F)F)c1cc(S(=O)(=O)N2CCOCC2)ccc1F > 76.9 µM
CN1/C(=C\C(=O)COc2ccc3c(c2)OCO3)C(C)(C)c2ccccc21 > 76.9 µM
O=C(COC(=O)c1ccc2c(c1)OCCO2)NCCC1=CCCCC1 > 76.9 µM
COc1ccccc1N1C(=O)c2ccccc2NC1c1ccncc1 (configuration not stated) > 76.9 µM
CC(NC(=O)CCNS(=O)(=O)c1ccc2c(c1)c(=O)n(C)c(=O)n2C)c1ccccc1 (configuration not stated) > 76.9 µM
Cc1cccc(N2C(=O)C3C4C=CC(C4)C3C2=O)c1 (configuration not stated) > 76.9 µM
CCCn1c(=O)n(C)c(=O)c2c(SCc3cc(C(C)=O)ccc3OCC)nc(C3CC3)nc21 > 76.9 µM
CCn1cc(C(=O)N(CCCN2CCOCC2)Cc2ccco2)c(=O)c2ccc(C)nc21
